In the supplement of paper PMC3334620:
In all, about 33,000 sequences were measured (“E-score (-0.5 to 0.5)”: median about -0.012, highest 2% from about 0.27 on). The list shows a part of the results.

These sequences were tested against T1, Vhr1 (UniProt P40522) (assay: PBM E-score (8-mer binding enrichment) (E-score (-0.5 to 0.5)); higher = stronger / more preferred TF binding; most listed sequences are background and not binding sites). Conditions: protein concentration: 200 nM; construct: GST-full length.
T1 sequence: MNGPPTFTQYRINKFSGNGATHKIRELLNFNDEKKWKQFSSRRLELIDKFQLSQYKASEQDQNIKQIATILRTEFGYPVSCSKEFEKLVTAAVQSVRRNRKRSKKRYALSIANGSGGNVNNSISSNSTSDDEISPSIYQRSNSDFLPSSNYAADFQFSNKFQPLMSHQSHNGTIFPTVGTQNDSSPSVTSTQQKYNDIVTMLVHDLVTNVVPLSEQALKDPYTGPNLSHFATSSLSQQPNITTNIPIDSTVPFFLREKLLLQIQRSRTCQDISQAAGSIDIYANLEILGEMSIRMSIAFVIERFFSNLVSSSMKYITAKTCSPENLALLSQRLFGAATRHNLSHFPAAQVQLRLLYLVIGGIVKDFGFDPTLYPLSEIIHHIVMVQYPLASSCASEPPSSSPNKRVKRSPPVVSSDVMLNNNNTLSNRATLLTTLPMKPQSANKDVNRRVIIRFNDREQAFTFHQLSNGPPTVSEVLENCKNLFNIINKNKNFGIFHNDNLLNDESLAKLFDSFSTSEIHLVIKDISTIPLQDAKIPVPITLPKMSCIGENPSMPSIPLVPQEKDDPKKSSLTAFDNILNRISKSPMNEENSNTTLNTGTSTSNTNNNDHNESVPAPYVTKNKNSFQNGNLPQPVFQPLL
Experimental: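 Universal 'all 10-mer' protein binding microarrays (Agilent AMADID 015681) probed with GST-tagged S. cerevisiae TFs (full-length or DBD) made by in vitro transcription/translation (PURExpress), about 100-200 nM. Bound TF was detected with fluorescent anti-GST. Each ungapped 8-mer (which stands for itself and its reverse complement) is scored by the PBM enrichment score (E-score), a modified Wilcoxon-Mann-Whitney statistic from -0.5 to +0.5, computed with the Universal PBM Analysis Suite. Scale: above 0.35 generally sequence-specific binding.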

Row | Sequence | PBM E-score
1 | CTTACCCC | -0.156
2 | ACTTGTTG | -0.0998
3 | ACACACGC | 0.183
4 | AACCGTGA | 0.0681
5 | ACCTCGCA | -0.0858
6 | AACAGCAA | 0.0779
7 | CGCCAAGC | -0.192
8 | AGGTATTC | -0.144
9 | ACGCGGGC | 0.206
10 | AATACGCA | -0.0668
11 | ACACCAGG | 0.111
12 | AAATCAAC | -0.0401
13 | CTCGCTCC | 0.196
14 | CCACGGAC | -0.0292
15 | CGAGCCAA | 0.00102
16 | AGCGAGCA | -0.121
17 | GTCGCCTA | 0.0142
18 | AGTCGCTA | 0.174
19 | CATAGCCA | 0.142
20 | CTAGGCCC | -0.21
21 | AGCGGGTG | 0.014
22 | GATTACAC | 0.141

Row | Sequence | PBM E-score
23 | GCAAGGGA | 0.0335
24 | ACCTTCAC | -0.00257
25 | ATATTATC | 0.0882
26 | CGATAATC | -0.0502
27 | ACGTCACC | -0.0531
28 | GTGGGACA | 0.0875
29 | CAAGTCCC | -0.219
30 | GACCGTAC | -0.225
31 | CACTGAAA | 0.0366
32 | ATGTCCAC | -0.0274
33 | ATCCTATA | 0.177
34 | CGTTCGGC | 0.00075
35 | CGTAACTA | -0.022
36 | AAAAGAGC | -0.163
37 | AGTATATC | 0.0944
38 | ATGTAGGA | -0.146
39 | CGGTTTTC | 0.0491
40 | ATCGACAT | 0.013
41 | ACCTCATC | 0.0088
42 | CGGGCTTA | -0.0289
43 | CGGACCCG | 0.0841
44 | GCTGCACC | 0.0112

Row | Sequence | PBM E-score
45 | CGCATTAC | 0.0236
46 | CTACCATC | -0.0279
47 | AGAGCTTA | -0.271
48 | ATCTCATA | 0.00201
49 | CCCGGAAC | -0.139
50 | AACTGTAA | 0.135
51 | GAGGCCGC | -0.167
52 | AAGAAACG | -0.123
53 | TCAGTCGA | 0.096
54 | CCTGAGAA | -0.225
55 | CAGAGCGG | -0.0139
56 | CCTGCCTA | -0.0135
57 | AGTTGTTG | 0.0147
58 | ATATACTA | 0.257
59 | CCCGTGTA | -0.0121
60 | GAAGGCGA | -0.101
61 | ATCATACC | 0.25
62 | GGCTACCC | -0.179
63 | GGATCCGA | -0.0296
64 | GACATGTC | -0.13
65 | AAAAAACA | -0.0608
66 | ACCCGGAC | 0.0466

Row | Sequence | PBM E-score
67 | ATTATCTA | 0.0263
68 | GTTATGCA | -0.119
69 | CTGGTACC | -0.00802
70 | TTCGCCAA | -0.108
71 | ACAGTGAC | 0.261
72 | CATCGGCG | 0.0316
73 | CGTCAATA | -0.142
74 | ATGCGGAC | 0.0012
75 | GCTTCTCC | -0.0809
76 | ATTGCCAG | 0.0576
77 | AATACCAC | 0.0755
78 | ACTGTCCT | 0.145
79 | AATTTCGG | -0.24
80 | AAATTTTG | -0.287
81 | AGCACTGC | -0.211
82 | AAGTCAGC | 0.281
83 | AGACTCGA | -0.0333
84 | ATTTGGCG | -0.168
85 | GGTACCAC | -0.0628
86 | GCATAAGA | 0.0244
